{"source": "paper PMC5892938", "note": "The other results are listed elsewhere or left out. At the low end of the ranking, values are background and their order means little.", "data": [{"target": "GST-SBP-SLBP (stem-loop binding protein) (UniProt Q14493)", "assay": "targeted RNA Bind-n-Seq;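 further: DESeq read counts versus GST-SBP nonspecific binding control pulldown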", "details": "RBNS binding buffer: 25 mM Tris pH 7.5, 150 mM KCl, 3 mM MgCl2, 0.1% Tween, 0.5 mg/mL BSA, 1 mM DTT; 27 nM protein, 750 pM RNA pool; temperature not stated; high values mean tight binding", "values": [{"sequence": "GGUCACGUCUCAAUCAACUCAAUUUCCAGGGAAAGCCCUGGCGUUUUCAACAGCUCGCAGUCAAG", "binding signal (log2 fold change)": 0.0261}, {"sequence": "GGUCACGUCUCAAUCAACUCGUCUUCAGGAGUUUUCUCCUGCAAAUUCAACAGCUCGCAGUCAAG", "binding signal (log2 fold change)": 0.149}, {"sequence": "GGUCACGUCUCAAUCAACUCUAUCUCCAGGGAAAUCCCUGGUAUACUCAACAGCUCGCAGUCAAG", "binding signal (log2 fold change)": 0.0925}, {"sequence": "GGUCACGUCUCAAUCAACUCAUCUCCAGGAGUUUUCUCCUGCUUUGUCAACAGCUCGCAGUCAAG", "binding signal (log2 fold change)": 0.064}, {"sequence": "GGUCACGUCUCAAUCAACUCAUCCCCCAGGGAAAUCCCUGGUAAAUUCAACAGCUCGCAGUCAAG", "binding signal (log2 fold change)": -0.237}, {"sequence": "GGUCACGUCUCAAUCAACUCUUCUUCCAGGGAAAGCCCUGGUUAACUCAACAGCUCGCAGUCAAG", "binding signal (log2 fold change)": 0.056}, {"sequence": "GGUCACGUCUCAAUCAACUCAUCCCCAGGAGUUUUCUCCUGCAAAUUCAACAGCUCGCAGUCAAG", "binding signal (log2 fold change)": -0.0112}, {"sequence": "GGUCACGUCUCAAUCAACUCAAUUCCAGGAGUUUUCUCCUGCAUUCUCAACAGCUCGCAGUCAAG", "binding signal (log2 fold change)": -0.135}, {"sequence": "GGUCACGUCUCAAUCAACUCAUUUCCCAGGGAAAUCCCUGGUUUAUUCAACAGCUCGCAGUCAAG", "binding signal (log2 fold change)": -0.107}, {"sequence": "GGUCACGUCUCAAUCAACUCUAUCUCAGGAGUUUGCUCCUGCAUUUUCAACAGCUCGCAGUCAAG", "binding signal (log2 fold change)": 0.196}, {"sequence": "GGUCACGUCUCAAUCAACUCUUCGUCCAGGGAAAGCCCUGGUAAUUUCAACAGCUCGCAGUCAAG", "binding signal (log2 fold change)": -0.213}, {"sequence": "GGUCACGUCUCAAUCAACUCAUCCUCAGGAGUUUUCUCCUGCUAACUCAACAGCUCGCAGUCAAG", "binding signal (log2 fold change)": 0.156}, {"sequence": "GGUCACGUCUCAAUCAACUCAACUCCAGGAGUUUACUCCUGUAAUGUCAACAGCUCGCAGUCAAG", "binding signal (log2 fold change)": -0.11}, {"sequence": "GGUCACGUCUCAAUCAACUCUCAAGAGGGGGGGAAAACCCCUUUGCCCUCAAUGUCAACAGCUCGCAGUCAAG", "binding signal (log2 fold change)": 0.177}, {"sequence": "GGUCACGUCUCAAUCAACUCUUUUCCCAGGGAAAGCCCUGGUUUUCUCAACAGCUCGCAGUCAAG", "binding signal (log2 fold change)": 0.037}, {"sequence": "GGUCACGUCUCAAUCAACUCCACGGAGGGGGGGAAAACCCCUUUACCCUCAAAUUCAACAGCUCGCAGUCAAG", "binding signal (log2 fold change)": 0.543}, {"sequence": "GGUCACGUCUCAAUCAACUCAAUCCCAGGAGUUUUCUCCUGCUAUUUCAACAGCUCGCAGUCAAG", "binding signal (log2 fold change)": 0.141}, {"sequence": "GGUCACGUCUCAAUCAACUCAUUAGAGGGGGGGAAAACCCCUUUACCCUCACAAUCAACAGCUCGCAGUCAAG", "binding signal (log2 fold change)": -0.00194}, {"sequence": "GGUCACGUCUCAAUCAACUCAUUCCCCAGGGAAAUCCCUGGCUAUUUCAACAGCUCGCAGUCAAG", "binding signal (log2 fold change)": -0.0263}, {"sequence": "GGUCACGUCUCAAUCAACUCAAUCUCCAGGGAAAACCCUGGUUAACUCAACAGCUCGCAGUCAAG", "binding signal (log2 fold change)": 0.0368}, {"sequence": "GGUCACGUCUCAAUCAACUCUUCCCCAGGAGUUUUCUCCUGCUUUCUCAACAGCUCGCAGUCAAG", "binding signal (log2 fold change)": 0.05}]}]}
